Laboratory results: the antibiotic and cytotoxicity screens of Wong et al. (2023)
The other results are listed elsewhere or left out.

Key:
HSkMC = human skeletal muscle cells; assay: cytotoxicity call (relative viability < 0.9); settings: 10 µM
HepG2 = assay: cytotoxicity call (relative viability < 0.9); settings: 10 µM
S. aureus RN4220 = assay: growth inhibition call (relative growth <= 0.2); settings: 50 µM

C[C@H](CO)N1C[C@H](C)[C@@H](CN(C)C(=O)NC2CCCCC2)Oc2c(NC(=O)c3ccc(-c4nccs4)cc3)cccc2C1=O
inactive: cytotoxicity call (HSkMC) | cytotoxicity call (HepG2) | growth inhibition call (S. aureus RN4220)

NCc1ccc(-n2cncn2)cc1
inactive: cytotoxicity call (HSkMC) | cytotoxicity call (HepG2) | growth inhibition call (S. aureus RN4220)

C[C@H]1CCCCO[C@H](CN(C)C(=O)Nc2ccc(F)cc2)[C@@H](C)CN([C@@H](C)CO)C(=O)c2cc(NC(=O)c3ccncc3)ccc2O1
inactive: cytotoxicity call (HSkMC) | cytotoxicity call (HepG2) | growth inhibition call (S. aureus RN4220)

COc1ccc2c3c(n(c2c1)C)[C@@H](CO)N(C[C@]13CN(C1)C(=O)CN(C)C)C(=O)CN(C)C
inactive: cytotoxicity call (HSkMC) | cytotoxicity call (HepG2) | growth inhibition call (S. aureus RN4220)

C[C@@H]1CN([C@@H](C)CO)C(=O)Cc2cc(NC(=O)c3ccncc3)ccc2O[C@H]1CN(C)C(=O)NC1CCCCC1
inactive: cytotoxicity call (HSkMC) | cytotoxicity call (HepG2) | growth inhibition call (S. aureus RN4220)

C[C@H]1CN([C@@H](C)CO)C(=O)c2cccc(NC(=O)C3CC3)c2O[C@H]1CN(C)C(=O)Nc1ccc2c(c1)OCO2
inactive: cytotoxicity call (HSkMC) | cytotoxicity call (HepG2) | growth inhibition call (S. aureus RN4220)

COc1ccc(CN(C)C[C@H]2OCCCC[C@@H](C)Oc3ccc(NC(=O)Nc4ccc(F)cc4)cc3C(=O)N([C@H](C)CO)C[C@@H]2C)cc1
inactive: cytotoxicity call (HSkMC) | cytotoxicity call (HepG2) | growth inhibition call (S. aureus RN4220)

C[C@H](O)C#Cc1cnc2c(c1)C(=O)N([C@@H](C)CO)C[C@@H](C)[C@@H](CN(C)Cc1cncnc1)O2
inactive: cytotoxicity call (HSkMC) | cytotoxicity call (HepG2) | growth inhibition call (S. aureus RN4220)

C[C@@H]1CCCCO[C@@H](CN(C)C(=O)Nc2ccccc2)[C@@H](C)CN([C@@H](C)CO)C(=O)c2cc(NC(=O)CCC(F)(F)F)ccc2O1
inactive: cytotoxicity call (HSkMC) | cytotoxicity call (HepG2) | growth inhibition call (S. aureus RN4220)
